The IC50 comes from the fitted curve, where viability falls to half of the control; fits outside the tested doses are given as limits. For AUC the same curve is integrated over the 256-fold range of doses and scaled to a fraction; it is 1 without any effect and falls as sensitivity rises. For part of these data: The top dose, if marked as inferred, was calculated from the reported fits. For part of these data: An entry number marks a drug with two screens in the source, which often give different values.
Experiments:
Experiment in all cases: Viability of human cancer cell lines after 72 h of drug (GDSC screen)
5-Fluorouracil = compound: O=c1[nH]cc(F)c(=O)[nH]1 [5-Fluorouracil]; conditions: top dose 32 µM; top dose inferred
Experimental: (§1)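 Human cancer cell lines in 384-well plates, medium with 10% serum, drug for 72 h over a 256-fold dose range (nine 2-fold or five 4-fold steps up to the top dose). Adherent lines were fixed and stained with the nucleic acid dye Syto60, suspension lines read with resazurin; signal relative to control wells, capped at 0 and 100%. One two-parameter sigmoid per drug and line, fitted in a mixed model over all curves with the slope shared within a line.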

CUDC-101 = compound: C#Cc1cccc(Nc2ncnc3cc(OC)c(OCCCCCCC(=O)NO)cc23)c1 [CUDC-101]; conditions: top dose 5.12 µM; top dose inferred
Experimental: as §1

QS11 = compound: OC[C@H](Cc1ccccc1)Nc1nc(Oc2ccc3c(c2)CCC3)nc2c1ncn2Cc1ccc(-c2ccccc2)cc1 [QS11]; conditions: top dose 10.24 µM
Experimental: as §1

OSU-03012 = compound: NCC(=O)Nc1ccc(-n2nc(C(F)(F)F)cc2-c2ccc3c(ccc4ccccc43)c2)cc1 [OSU-03012]; conditions: top dose 16 µM; top dose inferred
Experimental: as §1

RDEA119 = compound: COc1cc(F)c(F)c(Nc2ccc(I)cc2F)c1NS(=O)(=O)C1(C[C@H](O)CO)CC1 [RDEA119]; conditions: top dose 5 µM, top dose inferred
Experimental: as §1

JNK-9L = compound: Fc1cc(-c2ccnc(Nc3ccc(-n4cnc(N5CCOCC5)n4)cc3)n2)cc(N2CCOCC2)c1 [JNK-9L]; conditions: top dose 5.12 µM; top dose inferred
Experimental: as §1

AC220 = compound: CC(C)(C)c1cc(NC(=O)Nc2ccc(-c3cn4c(n3)sc3cc(OCCN5CCOCC5)ccc34)cc2)no1 [AC220]; conditions: top dose 1.024 µM; top dose inferred
Experimental: as §1

Cell Line	AUC (5-Fluorouracil)	IC50 (5-Fluorouracil) [nM]	AUC (CUDC-101)	IC50 (CUDC-101) [nM]	AUC (QS11)	IC50 (QS11) [nM]	AUC (OSU-03012)	IC50 (OSU-03012) [nM]	AUC (RDEA119; screen: GDSC drug entry 1014)	IC50 (RDEA119; screen: GDSC drug entry 1014) [nM]	AUC (RDEA119; screen: GDSC drug entry 1526)	IC50 (RDEA119; screen: GDSC drug entry 1526) [nM]	AUC (JNK-9L)	IC50 (JNK-9L) [nM]	AUC (AC220)	IC50 (AC220) [nM]
ASH-3 (thyroid, adherent)	0.988	> 32000	0.922	> 5120	0.926	> 10200	0.67	2970	0.647	795	0.429	200	0.62	683	0.988	> 1020
ATN-1 (T-cell lymphoblastic leukaemia, suspension)	0.378	946	0.375	148	0.976	> 10200	0.875	13900	0.975	> 5000	0.985	> 5000	0.608	618	0.98	> 1020
AU565 (breast, adherent)	0.941	> 32000	0.457	242	0.841	8360	0.766	6550	0.97	> 5000			0.564	488	0.947	> 1020
BB49-HNC (head and neck, adherent)	0.977	> 32000	0.825	4920	0.969	> 10200	0.873	> 16000	0.775	2850	0.468	247	0.743	2160	0.978	> 1020
BB65-RCC (kidney, adherent)	0.944	> 32000	0.56	478	0.825	7400	0.765	6730			0.748	1830	0.65	893	0.983	> 1020
BC-1 (B-cell lymphoma, suspension)	0.626	4210	0.332	118	0.896	9320	0.684	3000	0.986	> 5000	0.956	> 5000	0.517	354	0.963	> 1020
BCPAP (thyroid, adherent)	0.789	12800	0.479	282	0.919	> 10200	0.763	5260	0.776	1810	0.752	1520	0.557	451	0.989	> 1020
BE2-M17 (neuroblastoma, adherent)	0.904	> 32000	0.666	943	0.933	> 10200	0.824	9850	0.739	1550	0.858	4310	0.654	866	0.987	> 1020
BE-13 (lymphoblastic leukaemia, suspension)	0.903	> 32000	0.213	49.3	0.922	> 10200	0.764	5450	0.954	> 5000	0.949	> 5000	0.607	615	0.941	> 1020
BEN (non-small cell lung carcinoma, adherent)	0.838	26200	0.692	1210	0.971	> 10200	0.744	5600			0.976	> 5000	0.61	673	0.98	> 1020
BFTC-905 (bladder, adherent)	0.905	> 32000	0.607	603	0.813	4600	0.621	2050	0.669	854	0.717	1160	0.234	62.7	0.99	> 1020
BFTC-909 (kidney, adherent)	0.957	> 32000	0.735	1470	0.955	> 10200	0.7	3600			0.931	> 5000	0.559	461	0.984	> 1020
BHT-101 (thyroid, adherent)	0.824	19900	0.528	383	0.982	> 10200	0.838	11300	0.351	119	0.385	149	0.589	565	0.983	> 1020
BHY (head and neck, adherent)	0.882	> 32000	0.403	174	0.81	5410	0.575	1610	0.828	3090	0.891	> 5000	0.612	649	0.986	> 1020
BICR10 (head and neck, adherent)	0.976	> 32000	0.87	> 5120	0.985	> 10200	0.783	7850	0.86	> 5000	0.867	> 5000	0.608	663	0.983	> 1020
BICR22 (head and neck, adherent)	0.884	> 32000	0.58	549	0.983	> 10200	0.843	13900	0.641	816	0.577	524	0.69	1190	0.977	> 1020
BICR78 (head and neck, adherent)	0.892	> 32000	0.467	256	0.983	> 10200	0.758	6380	0.498	308	0.663	959	0.656	929	0.978	> 1020
BL-41 (Burkitt lymphoma, suspension)	0.79	10700	0.149	39.8	0.799	3630	0.525	1150	0.994	> 5000	0.983	> 5000	0.48	287	0.97	> 1020

Cell Line	AUC (5-Fluorouracil)	IC50 (5-Fluorouracil) [nM]	AUC (CUDC-101)	IC50 (CUDC-101) [nM]	AUC (QS11)	IC50 (QS11) [nM]	AUC (OSU-03012)	IC50 (OSU-03012) [nM]	AUC (RDEA119; screen: GDSC drug entry 1014)	IC50 (RDEA119; screen: GDSC drug entry 1014) [nM]	AUC (RDEA119; screen: GDSC drug entry 1526)	IC50 (RDEA119; screen: GDSC drug entry 1526) [nM]	AUC (JNK-9L)	IC50 (JNK-9L) [nM]	AUC (AC220)	IC50 (AC220) [nM]
BPH-1 (prostate, adherent)	0.747	11200	0.226	46.2	0.982	> 10200	0.752	5810	0.397	158	0.565	481	0.535	402	0.962	> 1020
BT-483 (breast, adherent)	0.735	17600	0.976	> 5120	0.918	> 10200	0.939	> 16000	0.945	> 5000	0.971	> 5000	0.809	> 5120	0.957	> 1020
BV-173 (chronic myeloid leukaemia, suspension)	0.424	1270	0.187	43.4	0.979	> 10200	0.837	8950	0.735	1320	0.873	3830	0.67	892	0.95	> 1020
Becker (glioma, adherent)	0.955	> 32000	0.826	3650	0.979	> 10200	0.762	6430	0.787	2470	0.781	2360	0.587	573	0.975	> 1020
C2BBe1 (large intestine, adherent)	0.902	> 32000	0.729	1580	0.931	> 10200	0.785	7860	0.593	583	0.873	> 5000	0.629		0.985	> 1020
C3A (liver, adherent)	0.987	> 32000	0.779	2180	0.936	> 10200	0.676	3180	0.879	> 5000	0.755	1760	0.535	400	0.988	> 1020
C-4-I (cervix, adherent)	0.959	> 32000	0.753	1830	0.964	> 10200	0.798	8360	0.745	1680	0.914	> 5000	0.537	408	0.986	> 1020
C-33-A (cervix, adherent)	0.759	11200	0.379	149	0.966	> 10200	0.697	3580	0.89	> 5000	0.826	3030	0.463		0.962	> 1020
CA46 (Burkitt lymphoma, suspension)	0.776	13700	0.149	23.5	0.924	> 10200	0.743	5270	0.985	> 5000	0.965	> 5000	0.514	350	0.928	> 1020
CAKI-1 (kidney, adherent)	0.824	> 32000	0.686	1390	0.958	> 10200	0.84	> 16000			0.757	2560	0.517	365	0.976	> 1020
CAL-27 (head and neck, adherent)	0.519	2250	0.39	159	0.907	> 10200	0.63	2300	0.695	1120	0.517	348	0.522	368	0.984	> 1020
CAL-29 (bladder, adherent)	0.924	> 32000	0.52	364	0.984	> 10200	0.758	5920	0.766	1980	0.748	1720	0.693	1170	0.973	> 1020
CAL-33 (head and neck, adherent)	0.706	7600	0.554	451	0.882	> 10200	0.705	3790	0.574	499			0.618	675	0.986	> 1020
CAL-39 (cervix, adherent)	0.581	3370	0.692	1130	0.973	> 10200	0.53	1210	0.553	438	0.591	561	0.487	294	0.986	> 1020
CAL-51 (breast, adherent)	0.925	> 32000	0.949	> 5120	0.724	2490	0.31	319	0.871	3650	0.97	> 5000	0.424	205	0.985	> 1020
CAL-54 (kidney, adherent)	0.984	> 32000	0.607	659	0.966	> 10200	0.867	> 16000	0.823	3530	0.814	3210	0.619	714	0.972	> 1020
CAL-62 (thyroid, adherent)	0.9	> 32000	0.611	635	0.846	6960	0.528	1190	0.634	719	0.656	826	0.618	664	0.982	> 1020

Source: the supplement of paper PMC4967469
